Relative growth data for 37 molecules are collected here from the supplement of paper PMC9446081.

The whole screen tested about 39,000 compounds, of which about 220 (0.56%) showed activity. Some of the results follow.
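Note: static incubation at 37 °C against the wild-type strain, values averaged over two biological replicates.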

The test system of the assay is Escherichia coli K-12 BW25113. Kind of assay: relative growth (OD600 normalised to plate interquartile mean) (fraction); higher = less growth inhibition, active = 0.2 or less. As to conditions: 50 µM; LB; incubation time: overnight (16-24 h).
Consider `C[C@H]1CN([C@@H](C)CO)C(=O)c2cc(Br)cnc2O[C@@H]1CN(C)S(C)(=O)=O`, for which the relative growth was inactive: 1.03.
On to `C[C@@H]1CCCCO[C@@H](CN(C)C(=O)Cc2ccccc2)[C@H](C)CN([C@@H](C)CO)C(=O)c2cc(NC(=O)Cc3ccccc3)ccc2O1`, for which the relative growth is inactive: 1.02.
Next, `CC(C)OC(=O)[C@@H](C)Nc1n[nH]c(=O)[nH]c1=O`: inactive: 1.04; `C[C@@H]1CN([C@@H](C)CO)C(=O)c2cccc(NC(=O)Nc3ccc(C(F)(F)F)cc3)c2O[C@@H]1CN(C)Cc1ccc(C(=O)Nc2ccccc2N)cc1`: inactive: 1.07.
Next, `COc1ccc2c3c(n(c2c1)C)[C@@H](CO)N(C[C@]13CCN(CC1)C(=O)c1ccccn1)C(=O)c1ccccn1`: inactive: 0.987; `C=CC[n+]1ccccc1/C=N/O`: inactive: 0.96.
For the molecule `C[C@H]1CN([C@@H](C)CO)C(=O)c2cc(NC(=O)C3CC3)ccc2O[C@H]1CN(C)S(=O)(=O)c1ccccc1`, the relative growth was inactive: 0.978.
Then `C[C@@H]1CN([C@@H](C)CO)C(=O)Cc2cc(NC(=O)CCN3CCOCC3)ccc2O[C@@H]1CN(C)S(=O)(=O)c1cccs1`, with inactive: 0.989; and `O=C1NC[C@@H](c2ccccc2)OC(=O)[C@H](Cc2ccc(F)cc2)CCC=CC[C@@H]1CC(=O)N(CCO)Cc1ccccc1`, with inactive: 1.01.
Then `C[C@@H]1CCCCO[C@@H](CN(C)C(=O)CCC(F)(F)F)[C@H](C)CN([C@@H](C)CO)C(=O)c2cc(NC(=O)c3ccccc3)ccc2O1`, with inactive: 1.02.
Next, `CC(C)C1=CC2=CC[C@H]3[C@](C)(CO)CCC[C@]3(C)[C@@H]2CC1`: inactive: 1.04; `C[C@@H]1CCCCO[C@@H](CN(C)Cc2ccc(C(F)(F)F)cc2)[C@H](C)CN([C@H](C)CO)C(=O)c2cc(NS(=O)(=O)c3ccccc3)ccc2O1`: inactive: 1.02; `C[C@H]1CCCCO[C@H](CN(C)Cc2ccc(C(=O)O)cc2)[C@@H](C)CN([C@@H](C)CO)C(=O)c2cc(NS(=O)(=O)c3cccs3)ccc2O1`: inactive: 1.04.
`CN1CCN(C(=O)C[C@@H]2CC[C@H](NC(=O)Cc3ccccn3)[C@H](CO)O2)CC1`: the relative growth is inactive: 1.
As to `C[C@H](CO)N1C[C@H](C)[C@@H](CN(C)S(=O)(=O)c2ccccc2)Oc2ccc(NS(C)(=O)=O)cc2CC1=O`, the relative growth was inactive: 0.99.
Then `Cc1noc(C)c1NC(=O)Nc1ccc2c(c1)C(=O)N([C@H](C)CO)C[C@H](C)[C@@H](CN(C)Cc1ccc(Oc3ccccc3)cc1)O2`, with inactive: 0.987.
On to `COc1ccc(NC(=O)N(C)C[C@H]2Oc3ccc(NC(=O)C4CC4)cc3C(=O)N([C@H](C)CO)C[C@H]2C)cc1`, for which the relative growth was inactive: 1.01.
Then `C[C@H](CO)N1C[C@H](C)[C@@H](CN(C)C(=O)Nc2ccccc2)OCCCC[C@H](C)Oc2ccc(NC(=O)NC3CCCCC3)cc2C1=O`, with inactive: 1.02; and `COc1ccc(NC(=O)N(C)C[C@@H]2Oc3ncc(C#CCN(C)C)cc3C(=O)N([C@@H](C)CO)C[C@@H]2C)cc1`, with inactive: 1.02; and `C[C@H](CO)N1C[C@H](C)[C@@H](CN(C)C(=O)NC2CCCCC2)OCCCC[C@H](C)Oc2ccc(NC(=O)Cc3ccccc3)cc2C1=O`, with inactive: 0.977.
Then `C[C@H]1CN([C@@H](C)CO)C(=O)Cc2cc(NC(=O)CCCCCC(=O)Nc3ccccc3N)ccc2O[C@@H]1CN(C)C(=O)Nc1ccc(F)cc1`, with inactive: 0.985.
Then `C[C@@H]1CN([C@H](C)CO)C(=O)c2cc(C#Cc3cccnc3)cnc2O[C@@H]1CN(C)S(=O)(=O)c1ccccc1F`, with inactive: 0.975; and `C[C@H]1CN([C@@H](C)CO)C(=O)c2cc(NC(=O)CCN3CCOCC3)ccc2O[C@@H]1CN(C)Cc1ccncc1`, with inactive: 1.03; and `O=C(N[C@H](c1ccc(F)cc1)c1ccc2ccccc2n1)C1CCN(Cc2cccc(C(F)(F)F)c2)CC1`, with inactive: 1.02.
On to `C[C@@H]1CN([C@@H](C)CO)C(=O)c2cc(NC(=O)Nc3ccc4c(c3)OCO4)ccc2O[C@@H]1CN(C)Cc1ccc(Cl)c(Cl)c1`, for which the relative growth is inactive: 1.03.
On to `CCCNC(=O)N(C)C[C@H]1Oc2ncc(-c3ccc(C(=O)N(C)C)cc3)cc2C(=O)N([C@@H](C)CO)C[C@@H]1C`, for which the relative growth was inactive: 0.977.
Then `COc1cccc(S(=O)(=O)Nc2ccc3c(c2)C(=O)N(C)C[C@@H](OC)[C@@H](C)CN(C(=O)Cc2cccnc2)[C@@H](C)CO3)c1`, with inactive: 1.02; and `CC(C)NC(=O)N[C@@H]1CC[C@H](CCN)O[C@@H]1CO`, with inactive: 1; and `C[C@@H]1CN([C@@H](C)CO)C(=O)c2cc(NC(=O)Nc3ccc(F)cc3)ccc2O[C@@H](C)CCCCO[C@@H]1CN(C)C(=O)Nc1ccc2c(c1)OCO2`, with inactive: 1.04.
Next, `C[C@H]1CCCCO[C@H](CN(C)C(=O)c2ccccc2)[C@@H](C)CN([C@@H](C)CO)C(=O)c2cc(NS(=O)(=O)c3ccccc3)ccc2O1`: inactive: 0.998; `C[C@@H]1CN([C@@H](C)CO)C(=O)c2c(c3ccccc3n2C)-c2ccccc2CO[C@@H]1CN(C)S(=O)(=O)c1ccc(Cl)cc1`: inactive: 1.02; `C[C@@H]1CN([C@H](C)CO)C(=O)c2cccc(NC(=O)C3CC3)c2O[C@H]1CN(C)C(=O)NC1CCCCC1`: inactive: 1.01.
Then `COc1ccccc1NC(=O)Nc1ccc2c(c1)OC[C@@H](C)N(Cc1ccccc1C(=O)O)C[C@@H](C)[C@H](OC)CN(C)C2=O`, with inactive: 0.997; and `C[C@H]1CCCCO[C@H](CN(C)C(=O)NC2CCCCC2)[C@@H](C)CN([C@@H](C)CO)C(=O)c2cc(NC(=O)Nc3ccc4c(c3)OCO4)ccc2O1`, with inactive: 1.01.
`C[C@@H]1CN([C@@H](C)CO)C(=O)c2cc(NC(=O)Nc3ccc(C(F)(F)F)cc3)ccc2O[C@H]1CN(C)C(=O)Nc1cccc2ccccc12`: the relative growth was inactive: 1.01.
Next, `C[C@@H]1CN([C@H](C)CO)C(=O)CCCn2cc(nn2)CO[C@H]1CN(C)C(=O)Nc1cccc2ccccc12`: inactive: 0.992; `COc1ccc(CN(C)C[C@@H]2Oc3ccc(NC(=O)CCN4CCOCC4)cc3C(=O)N([C@H](C)CO)C[C@H]2C)cc1`: inactive: 1.03.
